The values that follow come from the BET-seq Pho4 binding data (Le et al. 2018).

The other results are listed elsewhere or left out. Values were computed here from the reads of four pooled replicates and scatter widely.

This assay concerns the target T1, Pho4 (S. cerevisiae) (UniProt P07270).
T1 sequence: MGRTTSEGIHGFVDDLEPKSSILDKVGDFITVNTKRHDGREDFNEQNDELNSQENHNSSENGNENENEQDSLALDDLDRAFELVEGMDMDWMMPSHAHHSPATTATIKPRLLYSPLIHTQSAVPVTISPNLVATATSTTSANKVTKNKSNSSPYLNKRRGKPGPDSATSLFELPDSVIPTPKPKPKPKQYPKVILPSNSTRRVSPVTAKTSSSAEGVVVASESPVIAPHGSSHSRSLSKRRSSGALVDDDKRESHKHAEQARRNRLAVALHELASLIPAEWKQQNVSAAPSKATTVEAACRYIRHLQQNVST
The assay can be described thus: relative binding free energy (BET-seq); higher = weaker binding. To be noted: reference: library average.
In the case of TGTAGCACGTGTTAGG, the “relative binding free energy” value was -0.335 kJ/mol.

In the case of ATGTGCACGTGTATAT, the “relative binding free energy” value is -0.711 kJ/mol. To AAGGGCACGTGATTGG belongs 0.293 kJ/mol; to GAGATCACGTGCAGGG, 0.586 kJ/mol; to TGTTACACGTGAATGA, 1.76 kJ/mol. With GCCTGCACGTGTGTGG the figure was 0 kJ/mol; with CAGGGCACGTGCAGGT, -0.879 kJ/mol. With AGATTCACGTGAAGTT the figure was 0.795 kJ/mol; with GGGGCCACGTGGTGAG, -0.586 kJ/mol. Regarding GCGGTCACGTGCTAGT, the “relative binding free energy” value is 0.795 kJ/mol. With AGGTACACGTGGTACT the figure was -0.251 kJ/mol; with GTAATCACGTGTGAAG, 1.26 kJ/mol.

On to TAGTTCACGTGAGTGG, for which the “relative binding free energy” value stood at 1.59 kJ/mol.

For the sequence TGTTTCACGTGTAGTT, the “relative binding free energy” value came out at 1.59 kJ/mol. With CGGTGCACGTGATTGG the figure was 0.669 kJ/mol; with TGGAGCACGTGAGTAG, 0.0418 kJ/mol. To GTCTTCACGTGCTTGA belongs 1.63 kJ/mol. As to ACGGGCACGTGAGTTG, the “relative binding free energy” value was 0.586 kJ/mol. As for TTAAGCACGTGGGACT, the “relative binding free energy” value was -0.669 kJ/mol. To GGGTTCACGTGGAGTC belongs 1.72 kJ/mol; to CTTAGCACGTGAAAGG, 1.3 kJ/mol; to TAGTACACGTGGTTCA, 0.502 kJ/mol. To ATATGCACGTGGAAGT belongs 0 kJ/mol; to GAGGACACGTGGATTT, 0.879 kJ/mol; to GGCCTCACGTGTGGCG, 0.795 kJ/mol. With AGTAACACGTGATTGA the figure was 0.46 kJ/mol. For AGGGTCACGTGCGCGT, the “relative binding free energy” value was -0.544 kJ/mol. On to TGGATCACGTGGTATA, for which the “relative binding free energy” value is 0.418 kJ/mol. To GTGCGCACGTGTGTGT belongs -0.335 kJ/mol; to GGGTTCACGTGGAGAT, 1.21 kJ/mol. As to CTTGACACGTGGAGAG, the “relative binding free energy” value came out at 0.837 kJ/mol. To GTACGCACGTGGAGGG belongs -0.711 kJ/mol; to AGTGTCACGTGGAGAG, 0.335 kJ/mol.

ATTGGCACGTGTGCTG: the “relative binding free energy” value is -0.293 kJ/mol. GTGTTCACGTGGTGTG: the “relative binding free energy” value stood at 0.962 kJ/mol. With CACGTCACGTGGTTGT the figure was 0.0837 kJ/mol.

On to GGAGACACGTGGCGAG, for which the “relative binding free energy” value worked out at 0 kJ/mol. With TTATACACGTGGTGAA the figure was 0.126 kJ/mol; with GTTGGCACGTGTGCCG, -0.251 kJ/mol; with CAATGCACGTGTATTT, 0.586 kJ/mol. With GGCGGCACGTGGGCAG the figure was -0.46 kJ/mol; with TCGGACACGTGGGATA, 0.209 kJ/mol.

With TGGATCACGTGCATTT, the “relative binding free energy” value amounted to 1.51 kJ/mol.

As for CATTTCACGTGTATGG, the “relative binding free energy” value was 1.26 kJ/mol. With AGGAGCACGTGGAGTT the figure was -0.377 kJ/mol; with TGTTCCACGTGGGTAA, -0.251 kJ/mol; with CGGCGCACGTGATTGG, 0.335 kJ/mol.

With TGTATCACGTGCGGTG, the “relative binding free energy” value came out at 0.167 kJ/mol. To GGGTGCACGTGTGACG belongs 0.502 kJ/mol; to AGGAGCACGTGTGAGA, -0.0418 kJ/mol. To GGAGGCACGTGGCGGC belongs -1.09 kJ/mol; to TTTGTCACGTGTGGCA, 0.753 kJ/mol; to GGGCGCACGTGGGAGG, -0.753 kJ/mol. To TTGGCCACGTGTAGAG belongs -0.46 kJ/mol. Consider TTCAGCACGTGTGGGC, for which the “relative binding free energy” value turned out to be 0 kJ/mol. GGGCACACGTGGGTTA: the “relative binding free energy” value was -0.628 kJ/mol. Take GGTTACACGTGACGGA: the “relative binding free energy” value was determined as 1.13 kJ/mol.

GAATACACGTGCGGGT: the “relative binding free energy” value was 0.586 kJ/mol. With TGGCACACGTGTGGTC the figure was 0.0418 kJ/mol; with GGTCTCACGTGGAAGA, 1.34 kJ/mol.

In the case of CATTGCACGTGGGGAA, the “relative binding free energy” value was -0.209 kJ/mol. With TGTTACACGTGATGTT the figure was 1.17 kJ/mol; with GTGTACACGTGGTAAG, 0.335 kJ/mol.

On to TGATTCACGTGTGCAG, for which the “relative binding free energy” value was determined as 0.544 kJ/mol.

As for TGGCGCACGTGGGTTT, the “relative binding free energy” value is -1 kJ/mol.

On to GGAGCCACGTGTTGGT, for which the “relative binding free energy” value stood at 0.0418 kJ/mol. With GGATTCACGTGGGCAG, the “relative binding free energy” value amounted to 0.46 kJ/mol. To GGAATCACGTGAGGTA belongs 1.46 kJ/mol; to TGATGCACGTGAAGAA, 1.63 kJ/mol. To TGAATCACGTGGGTGT belongs -0.0418 kJ/mol.

With TGTTTCACGTGTATGC, the “relative binding free energy” value was 1.3 kJ/mol. For GGACACACGTGAGGTG, the “relative binding free energy” value came to 1.21 kJ/mol. With TGAATCACGTGGGAGG the figure was 0.126 kJ/mol; with GGAGGCACGTGAGAAG, 0.586 kJ/mol. With AGGAGCACGTGGACTG the figure was -0.251 kJ/mol.

Consider ATAGTCACGTGTTATG, for which the “relative binding free energy” value turned out to be 0.544 kJ/mol. With TGGTTCACGTGATTCA the figure was 1.21 kJ/mol; with TTATGCACGTGAGCAG, 0.962 kJ/mol; with TGGTTCACGTGACTTT, 1.67 kJ/mol. Take TGTGCCACGTGTGAAT: the “relative binding free energy” value was 0.335 kJ/mol.

For AATTGCACGTGGTTAA, the “relative binding free energy” value is -0.0837 kJ/mol.

On to CAGGGCACGTGATTTT, for which the “relative binding free energy” value was found to be 0.0418 kJ/mol. With CTACGCACGTGGTGTG the figure was -0.92 kJ/mol; with CTGGGCACGTGTCGTA, -0.335 kJ/mol. With CCGGGCACGTGGGGTT the figure was -1.38 kJ/mol; with GAGGGCACGTGCGCTG, -0.753 kJ/mol; with GGTTGCACGTGAACAG, 1.26 kJ/mol. Take TTTAGCACGTGCAATG: the “relative binding free energy” value came out at 0.126 kJ/mol. To ATCGTCACGTGCTGTG belongs -0.209 kJ/mol. In the case of GGTTGCACGTGGGTAT, the “relative binding free energy” value was -0.126 kJ/mol. Turning to TTAATCACGTGTAGGA, the “relative binding free energy” value was found to be 0.126 kJ/mol. As to CTTGGCACGTGTTTTC, the “relative binding free energy” value was -0.209 kJ/mol.

In the case of CTTTTCACGTGCTTTT, the “relative binding free energy” value was found to be 0.879 kJ/mol. To GATGTCACGTGTCGTG belongs 0.586 kJ/mol. With AAGGGCACGTGGGAGT the figure was -0.879 kJ/mol; with TTTAGCACGTGATGAT, 0.837 kJ/mol; with CTGTACACGTGGGTAT, -0.586 kJ/mol.

For the sequence GGTGGCACGTGAGGTG, the “relative binding free energy” value came to 0.837 kJ/mol. With GCCGTCACGTGTAGGG the figure was 0.711 kJ/mol; with GAAATCACGTGGGTTA, 0.0418 kJ/mol. With TGCATCACGTGTTGAT the figure was 0.711 kJ/mol.

Regarding CTTATCACGTGCGGGG, the “relative binding free energy” value was 0.0418 kJ/mol. To AGGGGCACGTGTCGCG belongs -0.502 kJ/mol. To GTAGTCACGTGTAGAA belongs 0.586 kJ/mol; to CTGCGCACGTGTGGTA, -0.377 kJ/mol; to TTGCTCACGTGAAGCG, 2.22 kJ/mol.

On to GTTGTCACGTGGCGGG, for which the “relative binding free energy” value worked out at 0.418 kJ/mol. For AAGAACACGTGAGGGA, the “relative binding free energy” value came to 1.59 kJ/mol. With TTATTCACGTGTGCTC the figure was 0.879 kJ/mol.

Regarding GCAGTCACGTGAGGGG, the “relative binding free energy” value was determined as 1.3 kJ/mol. To GTGTGCACGTGGCCTG belongs -0.502 kJ/mol; to GGTTTCACGTGACGAG, 1.63 kJ/mol.

On to CTGACCACGTGGGGGG, for which the “relative binding free energy” value was -1.21 kJ/mol. With AGCGGCACGTGCAGGT the figure was -1.09 kJ/mol.

On to AATTACACGTGAGTTA, for which the “relative binding free energy” value was determined as 1.21 kJ/mol. Regarding CCAGGCACGTGGGGAG, the “relative binding free energy” value was -1.26 kJ/mol. As to CGGTGCACGTGGTGCT, the “relative binding free energy” value is -0.711 kJ/mol. With ATTATCACGTGGTAGG the figure was 0.126 kJ/mol. To CTTGGCACGTGATCGT belongs 0.0837 kJ/mol; to ATTTACACGTGGTGGA, 0.335 kJ/mol. To AATATCACGTGGAGAG belongs 1.05 kJ/mol; to TTTCGCACGTGGTAAG, -0.335 kJ/mol; to GTTGTCACGTGAGCAG, 0.753 kJ/mol. With AGTATCACGTGTTGTC, the “relative binding free energy” value was determined as 0.46 kJ/mol. With GGTTGCACGTGGGAGC the figure was -0.293 kJ/mol; with GGAATCACGTGGAAGG, 0.795 kJ/mol; with TATATCACGTGTTTGA, 0.418 kJ/mol. To CTCAGCACGTGGATGG belongs 0.377 kJ/mol. To TAGATCACGTGTGGGA belongs 0.418 kJ/mol. Take ATGCTCACGTGTTGTT: the “relative binding free energy” value amounted to 0.377 kJ/mol. To TATGTCACGTGAGGGA belongs 0.837 kJ/mol. To TGGGGCACGTGTGGCA belongs 0.0837 kJ/mol; to TTTTTCACGTGTAAGA, 1.97 kJ/mol.

As for AAAGTCACGTGCTTGG, the “relative binding free energy” value is -0.251 kJ/mol. With ATGTGCACGTGTTGCC, the “relative binding free energy” value worked out at 0.209 kJ/mol. In the case of ATGAGCACGTGTGGCA, the “relative binding free energy” value turned out to be 0.377 kJ/mol.

On to AGTCACACGTGCTGGG, for which the “relative binding free energy” value amounted to 0.418 kJ/mol. With GCTAACACGTGGAGGG the figure was 0.711 kJ/mol. With GTTAACACGTGGGTCT the figure was 0.209 kJ/mol; with GTGCGCACGTGATATG, 0.293 kJ/mol. With CTAGCCACGTGGGAGG the figure was -0.544 kJ/mol; with AATAACACGTGGTGTG, -0.502 kJ/mol.

For TATGACACGTGGTGAA, the “relative binding free energy” value stood at 0.335 kJ/mol. To ATAGTCACGTGAAAGG belongs 1.05 kJ/mol; to TTAAGCACGTGTAACG, 0.962 kJ/mol. With TGCTGCACGTGCGTGT the figure was -0.502 kJ/mol.
